From a compilation of properties of binary mixtures (doi:10.1016/j.molliq.2020.112816)
Some of these densities may be calculated back from excess volumes.

Assay: xn = mol fraction of the nth substance listed
Settings: 101 kPa

NC=O + CCCC[n+]1ccn(C)c1.F[B-](F)(F)F
mass density [kg/m3]
Settings	293.15 K	298.15 K	303.15 K	308.15 K	313.15 K	318.15 K
x2 = 0	–	1129.1	1125.4	1121	1116.7	1112
x2 = 0.0675	1153.4	1150.1	1146.9	1143	1139.2	1135.1
x2 = 0.135	1167.6	1164.6	1161.5	1157.8	1154.3	1150.6
x2 = 0.2054	1178.4	1175.4	1172.4	1169	–	1161.9
x2 = 0.2758	–	–	1180.6	–	1173.8	–
x2 = 0.3629	–	1190.9	1188	1184.7	–	1177.8
x2 = 0.4499	1198.9	1196.1	–	–	–	1183.3
x2 = 0.5095	–	1198.9	1196	1192.8	1189.6	1186.2
x2 = 0.569	–	1201	1198.2	1195.1	1191.8	–
x2 = 0.6639	1206	1203.3	1200.6	1197.4	1194.2	–
x2 = 0.7588	1207.1	–	1201.7	1198.5	1195.3	1192
x2 = 0.8107	1207.3	–	–	1198.6	1195.4	1192
x2 = 0.8626	1207.2	1204.4	–	1198.4	1195.1	–
x2 = 0.9313	1206.6	1203.8	–	–	1194.1	1190.4

CCCC[n+]1ccn(C)c1.F[B-](F)(F)F + NC=O
x1 = 1
Settings	mass density [kg/m3]
293.15 K	1205.5
298.15 K	1202.6
303.15 K	1199.3
313.15 K	1192.2
